Measurements from PubChem BioAssay AID588382 (National Center for Advancing Translational Sciences (NCATS), 2011).
Values joined by “and” are separate entries in the source; they are usually repeats but may differ in a detail not shown here. Equal values may be shown once. About 150 (12%) of roughly 1,300 compounds were called active. Inconclusive results, whose numbers are uncertain, are shown with a selection of clear calls. The call rests on the fitted dose curve; in most records, active means well fitted cell-killing curve with a large enough effect; inconclusive means small, poorly fitted or top-dose-only effect, or effect the other way; inactive means flat fitted curve, though single readings scatter. Potencies of inconclusive entries are doubtful fits and often do not repeat.

assay: qHTS of small molecules that selectively kill Giardia lamblia: Hit Validation in HepG2 cytotox; settings: cell viability; Potency: HepG2 cytotoxicity; series mostly up to 38.3 µM;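 further: compound exposure lasted overnight at 37 deg C; nearly all actives have a fitted effect of over 55% in size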
How it was run: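 Counterscreen cytotoxicity: ATPLite luminescence (15 min, room temperature) measured in HepG2 cells exposed overnight at 37 deg C to pin-transferred compound (23 nL) after overnight pre-incubation.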
Potency means the concentration at half of the fitted maximal effect; tags describe the fitted curve by direction and shape.

Row | SMILES | Potency
1 | O=C(Nc1cc(S(=O)(=O)N2CCOCC2)ccc1N1CCOCC1)c1ccc([N+](=O)[O-])s1 | inconclusive: 26.1 µM [cytotoxic, single point]
2 | COc1cc(-c2noc(C)c2C#Cc2ccsc2)cc(OC)c1OC | inconclusive: 3.29 µM [cytotoxic, partial curve, poor fit]
3 | O=C(CN1C(=O)c2ccccc2S1(=O)=O)c1ccc2c(c1)OCCO2 | active: 2.07 µM
4 | COc1ccc(-n2nc([N+](=O)[O-])c(=NCc3cccnc3)n2O)cc1 | inactive
5 | O=C(Nc1ccccc1N1CCN(C(=O)c2ccccc2)CC1)c1ccc([N+](=O)[O-])o1 | inactive
6 | Cc1cccc(N2CCN(C(=S)Nc3ccc4nc(N5CCN(C)CC5)cc(C)c4c3)CC2C)c1 (stereo not drawn) | active: 18.5 µM
7 | COc1ccc(S(=O)(=O)N2CCN(C(=O)c3ccc([N+](=O)[O-])o3)CC2)cc1 | inactive
8 | O=C(Nc1ccccc1)Nc1ncc([N+](=O)[O-])s1 | inconclusive: 1.65 µM [cytotoxic, full curve]
9 | O=C(NC(=S)Nc1ccc(CN2CCOCC2)cc1)c1ccc([N+](=O)[O-])cc1Cl | inactive
10 | COCCn1c(C)cc(/C=C2/SC(=O)N(C(C)C(=O)OC)C2=O)c1C (stereo not drawn) | inconclusive: 8.26 µM [cytotoxic, single point]
11 | CN(C(=O)OC(C)(C)C)c1ccc(-c2nc3ccccc3s2)cc1 | inconclusive: 1.17 µM [cytotoxic, partial curve]
12 | COc1cccc([C@@H]2CC=C(C(=O)O)[C@H](c3cccc(Cl)c3)N2S(=O)(=O)c2ccc(C)cc2)c1 | inactive
13 | Cn1nc(N)c2c(-c3ccc(Cl)cc3)c(C#N)c(N)nc21 | inactive
14 | COc1cc(/C=C2\SC(=O)N(c3ccc(Cl)cc3)C2=O)cc([N+](=O)[O-])c1O | inactive
15 | Cc1ccc(C(=O)c2c3ccc(C(F)(F)F)cc3[n+]([O-])n2CCCN)cc1 | inconclusive: 26.1 µM [cytotoxic, single point]
16 | O=C(CN(C1CCCCC1)S(=O)(=O)c1ccc(F)cc1)NCC1CCCO1 (stereo not drawn) | active: 4.65 µM
17 | CCOc1ccc(-c2cc(C(=O)N3CCN(c4ccccn4)CC3)c3ccccc3n2)cc1 | active: 1.65 µM and active: 414 nM
18 | COc1ccc(C(=O)Nc2ccc(C)cn2)c(OC)c1 | inconclusive: 8.26 µM [cytotoxic, partial curve]
19 | COc1ccc(C(=O)COC(=O)c2ccccc2NS(=O)(=O)c2ccc(O)c([N+](=O)[O-])c2)cc1 | inactive
20 | CCCCC(CC)C(=O)Nc1ncc([N+](=O)[O-])s1 (stereo not drawn) | inconclusive: 0.585 µM [cytotoxic, full curve, poor fit]
21 | O=C(Nc1cccnc1)c1ccc([N+](=O)[O-])s1 | inconclusive: 26.1 µM [cytotoxic, single point]
22 | COc1ccc2nc(N3CCN(C(=O)c4ccc([N+](=O)[O-])o4)CC3)sc2c1 | inconclusive: 14.7 µM [cytotoxic, single point]
23 | Cc1ccc(C2=NCCn3c2c2ccc([N+](=O)[O-])cc2[n+]3[O-])cc1 | inactive

Row | SMILES | Potency
24 | O=C(Nc1nc2cc3c(cc2s1)OCCO3)c1ccc([N+](=O)[O-])o1 | inconclusive: 16.5 µM [cytotoxic, partial curve]
25 | O=C(Nc1ccc2nc(-c3ccco3)[nH]c2c1)c1cccs1 | inconclusive: 4.65 µM [cytotoxic, full curve]
26 | Cc1ccc(/C=C/C(=O)NCC2COc3ccccc3O2)o1 (stereo not drawn) | inconclusive: 0.656 µM [cytotoxic, partial curve]
27 | O=C(NN1C(=O)c2ccccc2NC1c1ccc([N+](=O)[O-])o1)c1ccccc1 (stereo not drawn) | inactive
28 | O=c1[nH]c2cccnc2n1-c1ccc([N+](=O)[O-])cc1 | inactive
29 | O=C(Nc1cccc(NC(=O)c2ccc([N+](=O)[O-])o2)c1)c1ccco1 | inconclusive: 14.7 µM [cytotoxic, single point]
30 | O=C(COC(=O)c1ccccc1)Nc1ncc([N+](=O)[O-])s1 | inactive
31 | O=C1c2ccccc2C(=O)C1c1cc2ccccc2cn1 | inconclusive: 3.29 µM [cytotoxic, full curve]
32 | CN1N/C(=C\c2ccccc2)N=C2C(=O)N(C)C(=O)N=C21 | inconclusive: 23.3 µM [cytotoxic, single point]
33 | Cc1cc(N2CCN(C)CC2)nc2ccc(NC(=S)N3CCN(c4ccc(F)cc4)CC3)cc12 | active: 20.7 µM
34 | Cc1nc([N+](=O)[O-])cn1-c1nc2ccccn2c1[N+](=O)[O-] | inconclusive: 13.1 µM [rising, partial curve]
35 | NCCCn1c(C(=O)c2cc(Cl)c(N)c(Cl)c2)c2ccc(C(F)(F)F)cc2[n+]1[O-] | inconclusive: 13.1 µM [cytotoxic, partial curve, poor fit]
36 | Cc1onc(-c2ccccc2)c1C(=O)Nc1ncc([N+](=O)[O-])s1 | inconclusive: 1.31 µM [cytotoxic, full curve]
37 | Cn1nc(-c2ccncc2)nc2c(=O)n(C)c(=O)nc1-2 | inconclusive: 2.93 µM [cytotoxic, full curve]
38 | O=c1[nH]c(=O)c2cc([N+](=O)[O-])cc([N+](=O)[O-])c2[nH]1 | inactive
39 | O=C(COc1cccnc1[N+](=O)[O-])Nc1ncc(Cl)cc1Cl | inconclusive: 20.7 µM [cytotoxic, single point]
40 | COc1ccc(OC)c(CCNC(=O)CSc2ccsc2[N+](=O)[O-])c1 | inactive
41 | O=C(CN1C(=O)c2ccccc2S1(=O)=O)c1ccc2c(c1)OCCCO2 | inconclusive: 0.826 µM [cytotoxic, full curve]
42 | O=C(Nc1cccnc1)c1ccc([N+](=O)[O-])o1 | inconclusive: 23.3 µM [cytotoxic, single point]
43 | CCc1cccc(NC(=O)CCCSc2nc3ccccc3[nH]2)c1 | active: 16.5 µM
44 | COc1ccc(OC)c2sc(N3CCN(C(=O)c4ccc([N+](=O)[O-])s4)CC3)nc12 | inconclusive: 16.5 µM [rising, partial curve, poor fit]
45 | CN(C)c1ccc(/C=C/c2ccc3ccccc3n2)cc1 | inconclusive: 2.07 µM [cytotoxic, full curve]
46 | Cc1ccccc1C(=O)Nc1ccc2c(c1)OCCO2 | inconclusive: 13.1 µM [cytotoxic, partial curve]

Row | SMILES | Potency
47 | O=C(Nc1ccc2cn[nH]c2c1)c1ccc(S(=O)(=O)N2CCOCC2)cc1 | inconclusive: 2.07 µM [rising, full curve, poor fit]
48 | COc1ccc(NC(=O)CCCn2nc(C)c3c(C)n(-c4ccccc4)nc3c2=O)cc1OC | inconclusive: 5.85 µM [rising, partial curve, poor fit]
49 | O=C(N/N=C/c1ccc([N+](=O)[O-])o1)C1CC1 | inactive
50 | Cc1ccc(C)c(N2CCN(C(=S)Nc3ccc4nc(N5CCN(C)CC5)cc(C)c4c3)CC2)c1 | inconclusive: 14.7 µM [cytotoxic, partial curve]
51 | CCCc1ccc(-c2cc(C(=O)N/N=C/c3ccc([N+](=O)[O-])o3)c3ccccc3n2)cc1 | active: 3.29 µM
52 | COc1cccc(/C=C2\Oc3ccc(O)cc3C2=O)c1O | inconclusive: 9.27 µM [cytotoxic, partial curve]
53 | O=C(Nc1ccc(N2CCN(Cc3ccccc3F)CC2)cc1)c1ccc([N+](=O)[O-])o1 | active: 2.93 µM
54 | O=C(N/N=C/c1ccc([N+](=O)[O-])s1)c1cccnc1 | inconclusive: 1.85 µM [cytotoxic, partial curve, poor fit]
55 | Cc1ccc(OCC(=O)c2cc(C)n(Cc3ccco3)c2C)c([N+](=O)[O-])n1 | inconclusive: 5.21 µM [rising, full curve, poor fit]
56 | O=C(Nc1ccc(S(=O)(=O)N2CCCC2)cc1)c1ccc([N+](=O)[O-])o1 | active: 2.93 µM
57 | CC1CC(C)CN(C(=O)/C=C/c2ccc([N+](=O)[O-])s2)C1 (stereo not drawn) | inconclusive: 18.5 µM [cytotoxic, single point]
58 | COc1ccc2nc(C)cc(N/N=C/c3cccc(OC)c3O)c2c1 | inconclusive: 18.5 µM [cytotoxic, single point]
59 | Cc1ccc(NC(=O)C2CCN(S(=O)(=O)c3cc([N+](=O)[O-])ccc3Cl)CC2)nc1 | inconclusive: 26.1 µM [cytotoxic, single point]
60 | CCOC(=O)N1CCN(C(=O)c2cc(-c3ccc(OCC)cc3)nc3ccccc23)CC1 | inconclusive: 1.85 µM [cytotoxic, full curve]
61 | O=C(Nc1cccc2ccccc12)c1ccc([N+](=O)[O-])o1 | inconclusive: 23.3 µM [cytotoxic, single point]
62 | CC(C)OCCCN(C)C1CCN(S(=O)(=O)c2ccc(-c3cc(C(F)(F)F)no3)s2)CC1 | inconclusive: 23.3 µM [cytotoxic, single point]
63 | O=C1c2cc(F)ccc2-n2c1nc1ccccc1c2=O | active: 5.21 µM
64 | Cc1ccnn1CC(=O)N/N=C/c1ccc([N+](=O)[O-])s1 | inconclusive: 0.0261 µM [rising, full curve, poor fit]
65 | COc1ccc(NC(=O)OCCn2c([N+](=O)[O-])cnc2C)cc1 | inconclusive: 23.3 µM [rising, single point]
66 | Cc1ccc(-c2cnc3cc(C)nn3c2)cc1 | inconclusive: 13.1 µM [cytotoxic, partial curve, poor fit]
67 | Cc1c(Cl)cccc1N=c1c([N+](=O)[O-])nn(-c2ccccc2)n1O | inactive
68 | Cc1ccc2nccnc2c1 | inconclusive: 5.85 µM [cytotoxic, partial curve]
